Experiments:
[1] = target: GST-fusion full-length human Hira subunit (human, UniProt P54198 1-1017); test: pull-down
[2] = target: GST-fusion human Hira truncation mutant 1-481 aa (human, UniProt P54198 in part); test: pull-down

binding result [1]: binds | binding result [2]: binds
B1: His-tag human Asf1a […] aa (domain or fragment)
chain: not shown

Source: PMC8754660 (Nucleic Acids Research, 2021)
